This is one part of the list.

This assay addresses T1, OsWOX13 (Oryza sativa, UniProt Q5QMM3 1-267).
T1 sequence: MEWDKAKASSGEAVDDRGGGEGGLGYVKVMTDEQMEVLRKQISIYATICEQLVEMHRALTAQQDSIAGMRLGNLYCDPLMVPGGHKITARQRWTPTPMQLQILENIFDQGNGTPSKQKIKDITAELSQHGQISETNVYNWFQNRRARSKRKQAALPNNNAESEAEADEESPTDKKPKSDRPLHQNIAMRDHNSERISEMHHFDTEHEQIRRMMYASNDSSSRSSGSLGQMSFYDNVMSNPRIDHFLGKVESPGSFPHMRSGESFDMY
Put plainly: protein-binding microarray (RPBM); PBS, 2% BSA, 51.3 ng/ul salmon testes DNA, 50 uM zinc acetate, 200 nM TF, 25 C, 1 h; high values mean tight binding. The following applies: protein: recombinant; tags: N-terminal polyhistidine and DsRed monomer fusion (pET32a); label: CyDye5-dUTP incorporated in the synthesized complementary strand; 3' TTTTT single-stranded linker to array surface; dsDNA, one strand shown. In outline: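 Transcription factors were made in E. coli BL21-CodonPlus as N-terminal fusions to a polyhistidine tag and DsRed, then purified on Ni–NTA. After primer extension with Cy5-dUTP and blocking with 2% BSA, a custom Agilent array was exposed for 1 h at 25 °C to 200 nM protein in PBS, 2% BSA, salmon testes DNA and 50 µM zinc acetate. Washed arrays were scanned on an Axon 4000B, and the binding signal is per-feature fluorescence intensity in arbitrary units.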
For “ATAACAACGAATTGAATGACGAGTAATCGAACGTGGCATTCGGAGTCACCTAGTGCAG”, the binding signal is 8150 fluorescence intensity (a.u.).

For “GGAAGGAATGTTTGTGTTGATTGCCACGGAATTCTAGCAACGGAGTCACCTAGTGCAG”, the binding signal is 4200 fluorescence intensity (a.u.).

As for “CTGATGATTACCGATCACGTTCTCTGATGGATAGGTGACACGGAGTCACCTAGTGCAG”, the binding signal is 24600 fluorescence intensity (a.u.).

Take “AAATAATTAACCCTGTAAAATGCCATCGCTCACGGTTTACCGGAGTCACCTAGTGCAG”: the binding signal is 7620 fluorescence intensity (a.u.).

For “CCTAATTAATTACTCCGTCTGTTCTTGAATATGACAACTTCGGAGTCACCTAGTGCAG”, the binding signal was 47200 fluorescence intensity (a.u.).

With “TGCTGATTTCTGTTGGGCCTAAAGGTTGAAATGCTGAACCCGGAGTCACCTAGTGCAG”, the binding signal is 7790 fluorescence intensity (a.u.).

On to “ACGCACTCAAGTTAGGATTTGATTGAAGAGTCAATCAATCCGGAGTCACCTAGTGCAG”, for which the binding signal was 36800 fluorescence intensity (a.u.).

In the case of “AATTAGGAGTCCAATTATCTCATATTAACATGCGAGTTTTCGGAGTCACCTAGTGCAG”, the binding signal is 3280 fluorescence intensity (a.u.).

For “AATAAGTTGTAATAATTAAAATTTAGTTAATCACGCGCGCCGGAGTCACCTAGTGCAG”, the binding signal was 9080 fluorescence intensity (a.u.).

Regarding “GATAATTTGTCCTGTCACTTAGGGCTCCCACATAGTAACACGGAGTCACCTAGTGCAG”, the binding signal was 25200 fluorescence intensity (a.u.).

Consider “AGGACTGCTAATTGCTATACTTGGTACCACTTTCTCAATTCGGAGTCACCTAGTGCAG”, for which the binding signal was 10500 fluorescence intensity (a.u.).

In the case of “CGAGTTATCTATTAATTTGACATATTAATATGTTTATGGACGGAGTCACCTAGTGCAG”, the binding signal is 14400 fluorescence intensity (a.u.).

“TGAAAATTTCCCTTCTAATCTCAATCCCGTGGAGATATGTCGGAGTCACCTAGTGCAG”: the binding signal was 3380 fluorescence intensity (a.u.).

“CCCATGATGATTTTATCAATCTCAAGATATACCTGCCCAGCGGAGTCACCTAGTGCAG”: the binding signal was 30400 fluorescence intensity (a.u.).

Consider “TTGACTGATTTCGTTTGTTTCGAGATATAAGCCAATTCAACGGAGTCACCTAGTGCAG”, for which the binding signal is 15300 fluorescence intensity (a.u.).

“GAAAATTTTCCAATTCACTGTTGCAATATAACTGTAATAACGGAGTCACCTAGTGCAG”: the binding signal was 5680 fluorescence intensity (a.u.).

Turning to “GTATAATTATTAATCCTATCCAACAAAAGTTCTATAAAATCGGAGTCACCTAGTGCAG”, the binding signal was 11000 fluorescence intensity (a.u.).

On to “TCACCTTAATTAAAACATATAAATGTTCACCCGGTACAACCGGAGTCACCTAGTGCAG”, for which the binding signal was 8140 fluorescence intensity (a.u.).

Turning to “TTTTGATTTGAGTAGGACCGCGTTATGAGAGCGGGGTGAGCGGAGTCACCTAGTGCAG”, the binding signal was 25200 fluorescence intensity (a.u.).

In the case of “TTGATTTCTAAAATTTAGATTTTGGTTTGACAGATAAGCACGGAGTCACCTAGTGCAG”, the binding signal was 21800 fluorescence intensity (a.u.).

In the case of “ATATAAATTATGTTATCAGCAGAACAATCACAGTACAAATCGGAGTCACCTAGTGCAG”, the binding signal is 6210 fluorescence intensity (a.u.).

Take “CTACTCTCCTCTCCGAGATAGTACTATATATTTGCACTTCCGGAGTCACCTAGTGCAG”: the binding signal was 5420 fluorescence intensity (a.u.).

On to “CCGCCACTAATGATGCACATTTATTCTTTACATAAATAAACGGAGTCACCTAGTGCAG”, for which the binding signal was 3180 fluorescence intensity (a.u.).

Take “AAATGTGATTTTGTAATTTCCCCTTTGAATTTTCATCAAACGGAGTCACCTAGTGCAG”: the binding signal is 8970 fluorescence intensity (a.u.).

In the case of “TATGTAAATTACTTTTAGCCTTTACTGAATTTACTTTTATCGGAGTCACCTAGTGCAG”, the binding signal is 5980 fluorescence intensity (a.u.).

On to “ATATGTAAATTAATTTTATAGCATTTATGAAAGTAAATCTCGGAGTCACCTAGTGCAG”, for which the binding signal was 18500 fluorescence intensity (a.u.).

Regarding “TCATGACTGGAGGGAGTATACTTGCGACAGTTTAGCAATACGGAGTCACCTAGTGCAG”, the binding signal was 3860 fluorescence intensity (a.u.).

“TTAATGACTATTTAGTTGACATGTAAGAAACAGGGGATTTCGGAGTCACCTAGTGCAG”: the binding signal is 3450 fluorescence intensity (a.u.).

On to “CGTAAAATTTGCGTTTTGTGAAAGTGTGTTCTTGCATAATCGGAGTCACCTAGTGCAG”, for which the binding signal is 3610 fluorescence intensity (a.u.).

Turning to “TTAGATTATTGAGTCAGATTACTATAAGCTAGATTATTATCGGAGTCACCTAGTGCAG”, the binding signal was 12500 fluorescence intensity (a.u.).

As to “ATGATAAGTAAAATTACTTATCCTTGGTCTGTGTGCCAAGCGGAGTCACCTAGTGCAG”, the binding signal was 3250 fluorescence intensity (a.u.).

Take “TAATATCATTAGCACATGATTAATTACAAAATAGATTTATCGGAGTCACCTAGTGCAG”: the binding signal was 10000 fluorescence intensity (a.u.).

Take “ATACCAAACAATCTGTCAATCTACCTTCCACCTAATTTCGCGGAGTCACCTAGTGCAG”: the binding signal is 7840 fluorescence intensity (a.u.).

For “ATCATAATCATCAGTCATTCAGCCTAAATGTTCAGGAATGCGGAGTCACCTAGTGCAG”, the binding signal is 18500 fluorescence intensity (a.u.).

As to “GTCTCTGTCTCTCGCTCTGATTGAAGTGTTCTGCTGCCATCGGAGTCACCTAGTGCAG”, the binding signal was 20400 fluorescence intensity (a.u.).

On to “TGAACTGTTAATGTTATTAATAATTTATGAGATACAGAGTCGGAGTCACCTAGTGCAG”, for which the binding signal was 4170 fluorescence intensity (a.u.).

“TATGAGTTACTACAAATAATTAGCGGTTTCAATAACAAAGCGGAGTCACCTAGTGCAG”: the binding signal is 5100 fluorescence intensity (a.u.).

As for “GCGTAGTGATTCATGACAAATTAGTGGTCTAAAACTGAACCGGAGTCACCTAGTGCAG”, the binding signal was 5820 fluorescence intensity (a.u.).

“CATCATATCAGTATTTGATTGATCCTTTCAAGCTTCCTCGCGGAGTCACCTAGTGCAG”: the binding signal is 32100 fluorescence intensity (a.u.).

Take “ATTCATTGATTAATTACTCGGTCACTGCAATCCAGGAGAGCGGAGTCACCTAGTGCAG”: the binding signal is 50300 fluorescence intensity (a.u.).

For “GTAACATGATGGCATTTGAGTAATTAACTAGTAAAACATACGGAGTCACCTAGTGCAG”, the binding signal is 3540 fluorescence intensity (a.u.).

Take “GCAAAATAATAGGCTAATTTTAGTTAGTAGAGATGCACTGCGGAGTCACCTAGTGCAG”: the binding signal is 9500 fluorescence intensity (a.u.).

Take “TCTTGAAATTTTGACAGGAACACAAAGGGCAGAGCATAGCCGGAGTCACCTAGTGCAG”: the binding signal was 3430 fluorescence intensity (a.u.).

With “AGAAATTGAATTGCTTGCTACAGAGAAGCTAGAAGAGTTTCGGAGTCACCTAGTGCAG”, the binding signal is 7510 fluorescence intensity (a.u.).

In the case of “TATAATTTTAAACGGTGGGATTATATAAACATTGTGCAAGCGGAGTCACCTAGTGCAG”, the binding signal was 14600 fluorescence intensity (a.u.).

As to “AAATTGACCTCACAATTAACACACATAAACACTATCTGCTCGGAGTCACCTAGTGCAG”, the binding signal is 3640 fluorescence intensity (a.u.).

With “GACCATGCAGCAATCAACCCCAATCAAACACATGCTTTACCGGAGTCACCTAGTGCAG”, the binding signal was 15500 fluorescence intensity (a.u.).

As for “TCAAGACAGGTAATCACTTGATCTGTCTTTGTTTGAAATCCGGAGTCACCTAGTGCAG”, the binding signal is 13600 fluorescence intensity (a.u.).

Regarding “AAAATTATTGAATTGTTGGGATCTGAGGGGATCCGCCGGACGGAGTCACCTAGTGCAG”, the binding signal is 5330 fluorescence intensity (a.u.).

Consider “CCCTTTGACAGATTAGGTGTGAGCGTGTGTGTGGACAGTACGGAGTCACCTAGTGCAG”, for which the binding signal is 43200 fluorescence intensity (a.u.).

As for “GTACAGATAATAAATTAATGTAGAGCCTTCTGTAGCATCACGGAGTCACCTAGTGCAG”, the binding signal is 7660 fluorescence intensity (a.u.).

Regarding “TTAAACTGACTGACCTCCAGTTGGTTTTGTTTAATGCACACGGAGTCACCTAGTGCAG”, the binding signal is 19500 fluorescence intensity (a.u.).

Regarding “TTTAGACAACCTAATTAATTATCTAGGGTGCCAATGGAGACGGAGTCACCTAGTGCAG”, the binding signal was 25300 fluorescence intensity (a.u.).

With “CTTAAATTACATACTAATTTCTTTTCACAGAGATGCAATCCGGAGTCACCTAGTGCAG”, the binding signal is 24400 fluorescence intensity (a.u.).

Values taken from publication PMC7819943, “Rice protein-binding microarrays: a tool to detect cis-acting elements near promoter regions in rice”.
